# Source: PubChem BioAssay AID1745853 (National Center for Advancing Translational Sciences (NCATS), 2022)
# The other results are listed elsewhere or left out. Further columns of the screen follow, without active or inactive calls.
# Columns and labels:
# Assay in all cases: Primary Screen for Target Class Profiling of Small Molecule Inhibitors of Methyltransferases
# [1] = target: Glycine N-methyltransferase (Homo sapiens) (UniProt Q14749); details: purified enzyme, MTase-Glo SAH luminescence; measured here: GNMT inhibition; at 40 µM; stronger effect = lower value
# Outline: (§1)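 Each enzyme was assayed with SAM and its substrate. SAH formation detected by MTase-Glo luminescence; single-point 40 uM screen[…].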
# [2] = target: Guanidinoacetate N-methyltransferase (Homo sapiens) (UniProt Q14353); details: purified enzyme, MTase-Glo SAH luminescence; measured here: GAMT inhibition; at 40 µM; stronger effect = lower value
# Outline: as §1
# [3] = target: Histamine N-methyltransferase (Homo sapiens) (UniProt P50135); details: purified enzyme, MTase-Glo SAH luminescence; measured here: HNMT inhibition; at 40 µM; stronger effect = lower value
# Outline: as §1
# [4] = target: Nicotinamide N-methyltransferase (Homo sapiens) (UniProt P40261); details: purified enzyme, MTase-Glo SAH luminescence; measured here: NNMT inhibition; at 40 µM; stronger effect = lower value
# Outline: as §1
# [5] = target: Phenylethanolamine N-methyltransferase (Homo sapiens) (UniProt P11086); details: purified enzyme, MTase-Glo SAH luminescence; measured here: PNMT inhibition; at 40 µM; stronger effect = lower value
# Outline: as §1
# % is scaled to controls: 0 for no effect and ±100 for the full control effect.
SMILES,"activity change, negative = inhibition [1] [%]","activity change, negative = inhibition [2] [%]","activity change, negative = inhibition [3] [%]","activity change, negative = inhibition [4] [%]","activity change, negative = inhibition [5] [%]"
O=S(=O)(Nc1ccc(C(O)(C(F)(F)F)C(F)(F)F)cc1)c1cccs1,7.89,5.7,9.94,-2.5,7.36
Cc1ccccc1C#Cc1ccc(CCC(=O)O)cc1,-13.4,-10,-8.01,-33.4,-13.7
CCOc1ccc(N2C(=O)c3cc(-c4ccccc4)nn3CC2(C)C(=O)NCc2ccccc2)cc1 (stereo not given),4.9,0,7.81,4.62,2.87
COc1cc2c(cc1NC(C)=O)C(c1ccc(Oc3ccccc3)nc1)CC(=O)N2 (stereo not given),-4.92,-1.03,-0.303,-10.5,-2.87
CC1(COc2cccnc2)COc2ccc(C(=O)NCc3cccs3)cc2N1 (stereo not given),-15.3,-8.85,-34.2,-19.7,-11.7
COc1ccc2cc3n(c2c1)CC(C)(C(=O)NC1CCCCCC1)N(Cc1cccnc1)C3=O (stereo not given),2.31,4,4.09,-4.48,1.08
c1ccc(-c2csc(N3CCOCC3)n2)cc1,1.81,2.36,8.81,-13,1.87
CN(C)S(=O)(=O)c1ccc(Cl)c(-c2nnc(-c3ccccc3)o2)c1,6.21,0.389,11.4,4.44,8.84
CC(O)C1C(=O)N2C(C(=O)O)=C(SC3CNC(C(=O)N(C)C)C3)C(C)C12 (stereo not given),0.682,–,8.92,–,–
Cc1cn2nnc(C(=O)N3CCC(C(=O)Nc4cccc(F)c4)CC3)c2c(=O)[nH]1,-5.73,-4.88,-1.89,-4.59,0.247
COc1ccccc1CNc1nc2c(S(=O)(=O)c3cc(C)ccc3C)nnn2c2ccccc12,-5.09,0.656,-2.99,-11.8,-8.51
Cc1cccc(CNC(=O)CCn2ccc3cc(S(=O)(=O)N4CCCC4)ccc32)c1,-0.623,4.26,-2.97,-0.252,0.985
O=S(=O)(c1ccc(Cl)cc1)N1CCN(c2ccnc3cc(Cl)ccc23)CC1,3.15,-10.8,-15,-36,-6.81
O=S(=O)(Nc1cccc2ccccc12)c1ccc2[nH]c3c(c2c1)CCCC3,0.689,4.84,-2.31,-10.5,-1.92
C=Cc1c(C)c2cc3[nH]c(cc4nc(cc5nc(cc1[nH]2)C(C)=C5CCC(=O)O)C(CCC(=O)O)=C4C)c(C)c3C=C,-9.69,8.49,7.58,-9.78,-8.37
CCc1nnc([C@@H]2CC(F)(F)CN2C(=O)CCn2cccn2)o1,-2.4,-0.488,0.781,-6.53,12.3
CC(C)Cn1c(=O)c2ccccc2n2c(CCC(=O)NCCC3=CCCCC3)nnc12,-6.33,15.3,4.56,-9.62,-1.08
O=C1NC(Cc2ccccc2)C(=O)N2CCCC12 (stereo not given),-2.12,0.919,3.32,-10.7,4.22
COC(=O)C1=CO[C@@H](O[C@@H]2O[C@H](CO)[C@@H](O)[C@H](O)[C@H]2O)[C@H]2[C@@H]1CC(OC)O[C@@H]2C (stereo not given in full),1.47,-0.597,5.06,-9.41,-7.48
Cc1ccc(O)c(N=Nc2ccccc2)n1,-90.1,-81.4,-84.3,-83.2,-84.3
COc1cccc(C(=O)N2CCN(c3ccnc4ccnn34)CC2)c1,-11,-5.95,-4.79,-17.4,-5.79

SMILES,"activity change, negative = inhibition [1] [%]","activity change, negative = inhibition [2] [%]","activity change, negative = inhibition [3] [%]","activity change, negative = inhibition [4] [%]","activity change, negative = inhibition [5] [%]"
OCC1=CC[C@@H]2C=CO[C@@H](O[C@@H]3O[C@H](CO)[C@@H](O)[C@H](O)[C@H]3O)[C@H]12,0.789,-2.8,5.23,-13.8,2.25
Cc1cnc(-c2ccncc2)n1C1CCN(S(=O)(=O)c2ccc3c(c2)OCCO3)CC1,-0.016,0,9.52,-6.37,3.16
C[C@]1(OC(=O)/C=C/c2ccccc2)C[C@@H](O)[C@]2(O)C=CO[C@@H](O[C@@H]3O[C@H](CO)[C@@H](O)[C@H](O)[C@H]3O)[C@@H]21,3.27,3.35,7.71,-8,-0.885
CCc1cc2c(cc3n2CC(C)(C(=O)NC2CCCCC2)N(Cc2cccc(F)c2)C3=O)s1 (stereo not given),1.55,0,1.81,9.64,0.164
COCc1cc(NCCCNc2cccnc2)ncn1,-58.7,-42.4,-11.1,-9.5,-27.5
O=[S+]([O-])(c1ccncc1)c1nnn2c1nc(NCc1ccncc1)c1ccccc12,-4.26,-1.76,-1.58,-4.39,2.43
CC(=O)OC1CC2(C)C(CCC(C)C23Cc2c(O)cc4c(c2O3)CNC4=O)C(C)(C)C1O (stereo not given),4.91,6.06,9.78,-9.47,-1.76
CCN1CCC[C@@H]1CNC(=O)c1ccc2c(c1)NC(=O)/C(=C/c1ccccc1F)S2,-35.6,-14.9,-57.5,-35.4,-6.6
Cc1ccccc1-c1cc(N2CCN(C)CC2)ncc1N(C)C(=O)C(C)(C)c1cc(C(F)(F)F)cc(C(F)(F)F)c1,1.18,9.8,9.54,-13.8,4.95
CCOc1ccc(C(=O)Cn2nc3n(C)c(=O)c4ccc(C(=O)NC(C)CC)cc4n3c2=O)cc1 (stereo not given),8.19,2.01,13.2,5.48,9.82
CCCn1c(=O)c2ccc(C(=O)NC(C)C)cc2n2c(SCC(=O)NC3CCCC3)nnc12,1.01,-3.49,4.59,-6.56,-2.24
CC(=O)N1CC2(CCCCN2CC2CC2)Cc2ccccc21 (stereo not given),-2.29,2.6,-5.2,-5.22,0.868
COc1ccc(N2CCN(C(=O)CCc3nnc4n(CCCOC(C)C)c(=O)c5ccccc5n34)CC2)cc1,-0.996,4.24,1.72,-0.876,0.311
CCCN1C(=O)c2ccc(-c3ccccc3)n2CC1(C)C(=O)NC1CCCCCC1 (stereo not given),-3.38,0,-2.89,-2.43,-0.897
O=C(NCc1cccnc1)c1nc(-c2ccc(Cl)cc2)c2ccccn12,-7.13,-6.43,-3.4,-20.3,-8.45
Cc1nnc2n1CCC(N(C)C(=O)CCc1ccccc1)CC2 (stereo not given),0.717,-0.087,0.656,-2.07,-7.73
CCc1cccc(NC(=O)Cn2nc3n(C(C)C)c(=O)c4ccc(C(=O)NC(C)CC)cc4n3c2=O)c1 (stereo not given),1.49,0,-3.12,3.37,-0.937
O=C(OC1CN2CCC1CC2)N1CCc2ccccc2C1c1ccccc1 (stereo not given),3.89,12.3,5.45,-21,0.609
CCCn1c(=O)c2ccc(C(=O)NC3CCCCC3)cc2n2c(=O)n(CC(=O)NC(C)CC)nc12 (stereo not given),7.5,2.16,2.34,7.33,7.2
O=C(Cn1ccc2cc(S(=O)(=O)N3CCCC3)ccc21)NCc1cccs1,-3.53,-2.23,0.939,-6,-2.48
Clc1ccc(Cn2c(Cc3ccccc3)nc3ccccc32)cc1,-2.9,-12.4,-3,-66.8,-16.8

SMILES,"activity change, negative = inhibition [1] [%]","activity change, negative = inhibition [2] [%]","activity change, negative = inhibition [3] [%]","activity change, negative = inhibition [4] [%]","activity change, negative = inhibition [5] [%]"
Cc1ccc(NC(=O)Cn2nc3n(CC(C)C)c(=O)c4ccccc4n3c2=O)c(Cl)c1,0.568,0.703,1.26,-4.98,-4.91
c1ccc(-c2cc(CC3(NCC4CC4)COC3)no2)nc1,-3.66,-3.58,-0.027,-10.7,5.4
Cc1cc(Nc2cccc(C(F)(F)F)c2)nc2ccc(NC(=O)c3ccc(=O)[nH]c3)cc12,–,13.5,–,7.16,10.6
CCC1CCCCN1CCCNC(=O)c1cc2n(n1)CC(C)(C(=O)NC1CCCC1)N(C)C2=O (stereo not given),-4.41,0,-4.63,-6.72,-2.51
COc1ccc(CNC(=O)C(C)n2ccc3cc(S(=O)(=O)N4CCCC4)ccc32)cc1OC (stereo not given),-0.488,2.84,1.89,-1.23,-0.94
O=C(CCc1nnc2n(Cc3ccccc3Cl)c(=O)c3ccccc3n12)N1CCN(c2ccccc2F)CC1,-6.27,4.65,4.74,2.8,-0.406
Cc1nc(CC(=O)NC(C)c2cnn(-c3ccccc3)c2C)cs1 (stereo not given),0.497,0.958,0.996,2.74,3
COc1ccc(/C=C/c2nc(NCCCN(C)C)c3ccccc3n2)cc1,-9.51,2.02,-58.5,-15.8,3.34
COc1cccc(CN2C(=O)c3cc4sccc4n3CC2(C)C(=O)NC2CCCC2)c1 (stereo not given),-5.85,4,-0.55,-8.83,-2.19
CCOc1ccccc1NC(=O)C1CCN(c2cnc3nccnc3c2)CC1,-3.13,-4.48,-2.89,-2.99,-14.9
O=C(CCc1nnc2n(Cc3ccc(F)cc3)c(=O)c3ccccc3n12)N1CCN(c2ccccc2)CC1,-4.19,3.37,-1.89,-12.2,-4.79
O=C(O)CC1CCC(c2ccc(-c3ccc4nc(C(=O)NCc5ccc(OC(F)(F)F)cc5)cn4c3)cc2)CC1 (stereo not given),-1.14,-9.79,-3.53,-15.9,-8.38
C[N+]1(C)[C@@H]2C[C@@H](OC(=O)C(O)(c3cccs3)c3cccs3)C[C@H]1[C@@H]1O[C@@H]12,5.69,2.9,4.32,-8.35,-4.18
O=C(NCCCn1ccnc1)c1cc(-c2ccco2)on1,4.78,-1.82,3.42,-11.3,-0.818
COCc1nc(C2CCN(C(=O)NCC(C)C)C2)no1 (stereo not given),-4.2,-2,-0.407,-7.84,-12.5
Cc1cc(C)cc(NS(=O)(=O)c2ccc3[nH]c4c(c3c2)CCCC4)c1,-0.617,0,-4.75,-17.6,1.12
CC(C)CCn1c(=O)c2ccccc2n2c(CCC(=O)NCc3ccccc3Cl)nnc12,-8.78,0.485,6.14,-8.05,-12.7
CCCCNC(=O)Cn1c(=O)oc2cc(S(=O)(=O)N3CC(C)CC(C)C3)ccc21 (stereo not given),-0.239,0,5.1,1.88,-9.23
CC1CC(C)CN(C(=O)Cn2c(=O)oc3cc(S(=O)(=O)N4CC(C)CC(C)C4)ccc32)C1 (stereo not given),-7.84,3.43,1.38,-3.67,-5.5
